The densities may have been worked out from excess volumes.
Test: xn = mol fraction of the nth substance listed
Details: 101 kPa

CCCO + CCCCCCCCn1cc[n+](C)c1.[Cl-]
x1 = 1
Details | mass density [kg/m3]
298.15 K | 799.5
313.15 K | 787.3
328.15 K | 774.6

CCO + CCCCCCCCn1cc[n+](C)c1.[Cl-]
x1 = 1
Details | mass density [kg/m3]
298.15 K | 785.1
313.15 K | 772.1
328.15 K | 758.6

CO + CCCCCCCCn1cc[n+](C)c1.[Cl-]
x1 = 1
Details | mass density [kg/m3]
298.15 K | 786.6
328.15 K | 757.9

CCCCCCCCn1cc[n+](C)c1.[Cl-] + CCCO
mass density [kg/m3]
Details | 298.15 K | 313.15 K | 328.15 K
x2 = 0 | – | 1000.2 | –
x2 = 0.1071 | 1001.1 | 992.4 | –
x2 = 0.2407 | 989.7 | 980.9 | –
x2 = 0.3036 | 983.6 | 974.7 | –
x2 = 0.407 | 971.6 | – | 953.6
x2 = 0.4887 | 960.6 | 951.5 | 942.4
x2 = 0.6209 | 938.1 | 928.6 | –
x2 = 0.7248 | – | 904.9 | –
x2 = 0.8516 | 875.6 | 865.1 | 854.5
x2 = 0.9024 | – | 843.9 | 832.9
x2 = 0.94 | 836.5 | 825.2 | –
x2 = 0.9729 | 817.8 | 806.1 | –

CCCCCCCCn1cc[n+](C)c1.[Cl-] + CCO
mass density [kg/m3]
Details | x2 = 0 | x2 = 0.0449 | x2 = 0.1305 | x2 = 0.2969 | x2 = 0.4753 | x2 = 0.6858 | x2 = 0.8809 | x2 = 0.917 | x2 = 0.955 | x2 = 0.9794
298.15 K | 1008.8 | – | – | 988.5 | 969.8 | 933.5 | 868.6 | 849.1 | 824.1 | 804.6
313.15 K | 1000.2 | 997.6 | 992.2 | 979.6 | 960.8 | – | 857.7 | 837.7 | 812.1 | –
328.15 K | 991.7 | – | 983.6 | 971 | 951.7 | – | – | 826.2 | 799.9 | –

CCCCCCCCn1cc[n+](C)c1.[Cl-] + CO
mass density [kg/m3]
Details | 298.15 K | 313.15 K | 328.15 K
x1 = 0.0197 | – | 800.1 | 786.6
x2 = 0 | 1008.8 | 1000.2 | 991.7
x2 = 0.0565 | 1006.9 | 998.3 | 989.7
x2 = 0.1686 | 1002.4 | 993.7 | 985
x2 = 0.2638 | 997.7 | 988.9 | 980.2
x2 = 0.3525 | – | 983.2 | 974.5
x2 = 0.4395 | – | 976.5 | –
x2 = 0.5589 | – | – | 954.9
x2 = 0.7536 | 939.2 | 929.2 | 919.2
x2 = 0.8231 | 918.1 | – | –
x2 = 0.8713 | – | 886.3 | 875.3
x2 = 0.8813 | – | 881 | 869.8
x2 = 0.9236 | 866.3 | 854.4 | 842.5
x2 = 0.9436 | 850.4 | 838.2 | 825.8
